Assay results as given in PubChem BioAssay AID2546 (National Center for Advancing Translational Sciences (NCATS), 2010).
Out of some 310,000 compounds screened, about 11,000 (3.5%) were called active. This list was built around the results that the source calls inconclusive (neither active nor inactive); the mix of calls is not that of the screen. Calls come from the whole dose curve; as a rule, active = well fitted inhibition curve with a large enough effect; inconclusive = small, poorly fitted or top-dose-only effect, or effect the other way; inactive = flat fitted curve, though single readings scatter. No potency is given beside an inconclusive call; the fits are too rough.

Assay: VP16 counterscreen qHTS for inhibitors of ROR gamma transcriptional activity;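 note: Gal4-VP16 expression switched on by copper sulfate through the metallothionein promoter; nearly all actives have a fitted effect of over 50% in size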
Settings: Drosophila S2 Gal4-VP16 UAS-luciferase, luminescence, 20 h; series mostly up to 53.6 µM
Potency is the fitted concentration of half-maximal effect; tags give direction and shape of the fitted curve.

SMILES	Potency
Cc1nn(CCCC(=O)Nc2cc(Oc3ccc(F)cc3)cc([N+](=O)[O-])c2)c(C)c1[N+](=O)[O-]	active: 10 µM
O=C(O)c1ccc(-c2noc(-c3ccccc3F)n2)cc1	active: 10 µM
N#C/C(=N\Nc1ccc(Cl)c(Cl)c1)C(=O)C1CC1	inconclusive [inhibitor, single point]
Cc1noc(NC(=O)c2ccccc2Cl)c1C#N	inconclusive [activator, single point]
COc1ccccc1N1CCN(C(=O)C2CCCN(S(=O)(=O)c3ccc4c(c3)oc(=O)n4C)C2)CC1 (stereo unspecified)	inconclusive [inhibitor, partial curve]
Cc1ccc(CS(=O)(=O)c2cn(CC(=O)N3CCOCC3)c3ccccc23)cc1	inconclusive [activator, single point]
S=C(NCC1(c2ccccc2)CCCC1)Nc1ccccc1	active: 6.31 µM
O=C(N/N=C/c1cc(Cl)cc([N+](=O)[O-])c1O)C1CC1	active: 2 µM
CCn1c(NCc2ccc(N(C)C)cc2)nc2ccccc21	inactive
O=C(CSc1ccc(Cl)cc1)N/N=C/c1ccc([N+](=O)[O-])o1	inconclusive [inhibitor, single point]
Cc1cc(C(=O)COc2cccc(-n3cnnn3)c2)c(C)n1-c1ccccc1	inconclusive [inhibitor, single point]
COC(=O)c1cn(-c2nc(C)c3c(n2)CCC3)nn1	inconclusive [activator, full curve, poor fit]
S=C(NCC1CC1)N/N=C/c1ccccc1Cl	inconclusive [inhibitor, single point]
COc1ccccc1Nc1nc(-c2sc(NC(=O)C(C)(C)C)nc2C)cs1	active: 6.31 µM
S=C(c1cn(Cc2ccccc2)c2ccccc12)N1CCOCC1	inactive
CCOC(=O)c1ccc(-c2csc(NC(=O)CN3CCC(C)CC3)n2)cc1	inconclusive [inhibitor, single point]
CCN(C(=O)C1CCN(c2nc(-c3ccc(OC)cc3)no2)CC1)c1ccc(OC)cc1	inconclusive [inhibitor, single point]
Cc1ccc(/C=C2\SC(=S)N(CCCC(=O)Nc3cccnc3)C2=O)cc1	active: 2.24 µM
Cc1cccc(NC(=S)NC2CC3CCCC(C2)N3Cc2cccs2)c1 (stereo unspecified)	inconclusive [inhibitor, single point]
COC(=O)Nc1ccc(OCc2ccccc2)cc1	inactive
Cc1ccc(NC(=O)c2ccc(COc3ccc4c(c3)CCC4)cc2)c(C)c1	active: 8.91 µM
